Assay results published in the RNAGym collection of RNA variant scans (doi:10.1073/pnas.2313332121).
Variants at the background level are over-represented here.

B1: TPR 5TU (parent)
chain: GGAUCUUCUCGAUCUAACAAAAAAGACAAAUCUGCCACAAAGCUUGAGAGCAUCUUCGGAUGCAGAGGCGGCAGCCUUCGGUGGCGCGAUAGCGCCAACGUUCUCAACUAUGACACGCAAAACGCGUGCUCCGUUGAAUGGAGUUUAUCAUG

Variants of: B1
Assay: polymerase ribozyme fitness, log enrichment relative to wild type (log ratio); higher = more active; in vitro selection for triplet polymerase activity
Method in brief: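 Libraries of mutants in each subunit of a heterodimeric triplet polymerase ribozyme were generated by PCR and transcribed. In triplicate, each went through one in vitro selection round: annealing with biotinylated primer, partner subunit and triplets; frozen incubation at −7 °C; gel excision of extended constructs; streptavidin-bead capture; RT-PCR. Fitness, taken from Illumina sequencing of input and output libraries, is the logarithm of a genotype's enrichment over wild-type enrichment, averaged across replicates with inverse-variance weights. The logarithm is base 2, and genotypes needed ≥10 input reads and ≥1 read per output to be kept.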

Row | Variant | polymerase ribozyme fitness (log ratio)
1 | GGAUCUUCUCGAUCUAACAAAAAAGACAAAUCCGCCACAAAGCUUGAGAGCAUCUUCGGUUGCAGAGGCGGCUGCCUUCGGUGGCGCGAUAGCGCCAACGUUCUCAACUAUGACACGCAAAGCGCGUGCUCCGUUGAAUGGAGUUUAUCAUG [U33C A60U A73U A122G] | -2.54
2 | GGAUCUUCUCGAUCUAACAAAAAAGACAAAUCCGGCACAAAGCUUGAGAGCAUCUUCGGAUGCAGAGGCGGCAGCCUUCGGUGGCGCGAUAGCGCCAACGUUCUCAACUAUGACACGCAAAACGCGUGCUCCGUUGAAUGGAGUUUAUCAUG [U33C C35G] | ≤ -4.2
3 | GGAUCUUCUCGAUCUAACAAAAAAGACAAAUCCGGGACAAAGCUUGAGACCAUCUUCGGAUGCAGAGGCGGCAGCCUUCGGUGGCGCGAUAGCUCCAACGUUCUCAACUAUGACACGCAAAACGCGUGCUCCGUUGAAUGGAGUUUAUCAUG [U33C C35G C36G G50C G94U] | ≤ -4.2
4 | GGAUCUUCUCGAUCUAACAAAAAAGACAAAUCCGCCACAAAGUUUGAGAGCGUCUUCGGAUGCAGAGGCGGCAGGCUUCGGUGGCGCGAUUGCGCCAACGUUCUCAACUAUGACACGCAAAACGCGUGCUGCGUUGAAUGGAGUUUAUCAUG [U33C C43U A52G C75G A91U C131G] | ≤ -4.2
5 | GGAUCUUCUCGAUCUAACAAAAAAGACAAAUCCGCCACAAAGCUUGAGAGCAUCUUCGGAUGCAGAGGUGGCAGCCUUCGGUGGCGCGAUGGCGCCAACGUUCUCAACUAUGACACGCAAAACGAGAGCUCCGUUUAAUGGAGUUUAUCAUG [U33C C69U A91G C125A U127A G136U] | ≤ -4.2
6 | GGAUCUUCUCGAUCUAACAAAAAAGACAAAUCCGCCACAAAGCUUGAGAGCAUCUUCGGAUGCAGAGGCGGCAGGCUUCGGUGGCAAGAUAGCGCCAACGUUCUCAACUAUGACACGCAAAACGCGUGCUCCGUUGAAUGGAGUUUAUGAUG [U33C C75G G86A C87A C149G] | ≤ -4.2
7 | GGAUCUUCUCGAUCUAACAAAAAAGACAAAUCCGCCACAAAGCUUGAGAGCAUCUUCGGAUGCAGAGGCGGCAGCCUUCGGUGGCGCGAUAGCGCUAACGUUCUCAACUAUGACACGCAAAACGCGUGCUCCGUUGAAAGGAGUUUAUCAUG [U33C C96U U139A] | ≤ -4.2
8 | GGAUCUUCUCGAUCUAACAAAAAAGACAAAUCCUCCACAAAAUUUGAGAGCAUCAUCGGAUGCAGAGGCGGCAGCAUUCGGUGGCGCGAUAGUGCCAACGUUCUCAACUAUGACACGCAAAACGCGUGCUCCGUUGAAUGGAAAUUAUCAUG [U33C G34U G42A C43U U55A C76A C93U G143A U144A] | ≤ -4.2
9 | GGAUCUUCUCGAUCUAACAAAAAAGACAAAUCCGCCACAAAGCUUGACAGCAUCUACGGAUGCAGAGGCGGCAGCCUUCGGUGGCGGGAUAGCGCCUACGUUCUCAAUUAUGACACGCAAAACGCGUGCUCCGUUAAAUGGAGUUUAUCCUG [U33C G48C U56A C87G A97U C108U G136A A150C] | ≤ -4.2
10 | GGAUCUUCUCGAUCUAACAAAAAAGACAAAUCCGCCACAAAGCUUGAGAGCAUCUUCGGAUGCAGAGACGGCCGCCUUCGAUGGCGCGAUAGCGCCAACGUUCUCAACUAUGACACGCAAAACGCGUGCUCCGUUGAAUGGAGUUUAACAUG [U33C G68A A73C G81A U148A] | ≤ -4.2
11 | GGAUCUUCUCGAUCUAACAAAAAAGACAAAUCCGCCACAAAGCUUGAGAGCAUCCUCGGAUGCAGAGGCGGCAGCCUUCGGUGGCGCUAUUGCGCCAACGUUCUCGACUAUGACACGCAAAACGCGUGCUCCGUUGAAUGGAGUUUAUCAUG [U33C U55C G88U A91U A106G] | ≤ -4.2
12 | GGAUCUUCUCGAUCUAACAAAAAAGACAAAUCGGCCACAGAGCUUGAGAGCAUUGUCGGAUGCAGAGGCGGCAGCCUUCGGUGGCGCGAUAGCGCCAGCGUUCUCAACUAUGACACGCAAAACGCGUGCUCCGUUGAAUGGAGUUUUUCCUG [U33G A40G C54U U55G A98G A147U A150C] | ≤ -4.2
13 | GGAUCUUCUCGAUCUAACAAAAAAGACAAAUCGGCCACAAGGCUUGAGAGCAUCUUCGGAUGCAGAGGCGGCAGCCUUCGGUGGCGCGAUAGAGCCAAAGUUCUCAACUAUGACACGCAAAACGCGUGCUCCUUUGAAUGGAGUUUAUCAUG [U33G A41G C93A C99A G133U] | ≤ -4.2
14 | GGAUCUUCUCGAUCUAACAAAAAAGACAAAUCGGCCACAAAGCUUGCGAGCAUCUUCGGAUGCAGAGGCGGCAGCCUUCGCUGUCGCGGUAGCGCCAACGUUCUCAACUAUGACACGCAAAACGCGUGCUCCGUUGAAUGGAGUUUAUCAUG [U33G A47C G81C G84U A89G] | ≤ -4.2
15 | GGAUCUUCUCGAUCUAACAAAAAAGACAAAUCGGCCACAAAGCUUGAGCGCAUCUUCGGAUCCAGAGGCGGCAGCCUUCGGUGGCGCGAUAGCGCCAACGUUCUCAACUAUGACACGCAAAACGCGUGCUCCGUUGAAUGGAGUUUAUCAUG [U33G A49C G62C] | ≤ -4.2
16 | GGAUCUUCUCGAUCUAACAAAAAAGACAAAUCGGCCACAAAGCUUGAGAGCCUCUUCGGAUGCAGAGGCGGCAGCCUUCGGUGGCGCGAUACCGCCAACGUUCUCAACUAUGACACGCAAAACGCGUGCUCCGUUGAACGGAGUUUAUCAUG [U33G A52C G92C U139C] | ≤ -4.2
17 | GGAUCUUCUCGAUCUAACAAAAAAGACAAAUCGGCCACAAAGCUUGAGAGCGUCAUCGGAUGCAGAGGCGGCAGCCUUGUGUGGCGCCAUAGCGCCAACGUUCUCAACUUUGACACGCAAAACGCGUGCUCCGUUGAAUGGAGUUUAUCAUG [U33G A52G U55A C79G G80U G88C A110U] | ≤ -4.2
18 | GGAUCUUCUCGAUCUAACAAAAAAGACAAAUCGGCCACAAAGCUUGAGAGCUUCUUCGCAUGCAGAGGCGGCAGCCUUCGGUGGCGCGAUGGCGCCAACGUUCUCAACUAUGACACGCAAAACGCGUGCUCCGUUGAAUGGAGUUUAUCAUG [U33G A52U G59C A91G] | ≤ -4.2
19 | GGAUCUUCUCGAUCUAACAAAAAAGACAAAUCGGCCACAAAGCUUGAGAGCAUCUUCGGAUGCAGAGGCGGCGGCCUUCGGUGGCGCGAUAGCGCCAACGUUCUCAACUAUGACACGCAAAACGCGUGCUCCGUUGAAUGGAGUUUAUCAUG [U33G A73G] | -0.513
